From PubChem BioAssay AID624417 (National Center for Advancing Translational Sciences (NCATS), 2012)
Among all 410,000 compounds or so, about 6,400 (1.6%) were called active. The shares of active, inactive and inconclusive entries below differ from those in the screen. The call rests on the fitted dose curve; in most records, active means well fitted inhibition curve with a large enough effect; inconclusive means small, poorly fitted or top-dose-only effect; inactive means no such curve, though single readings can be large or run the other way. No potency is given beside an inconclusive call; the fits are too rough.

Target: Glucagon-like peptide 1 receptor (Homo sapiens) (UniProt P43220)
UniProt P43220, sequence (P43220 whole entry, looked up): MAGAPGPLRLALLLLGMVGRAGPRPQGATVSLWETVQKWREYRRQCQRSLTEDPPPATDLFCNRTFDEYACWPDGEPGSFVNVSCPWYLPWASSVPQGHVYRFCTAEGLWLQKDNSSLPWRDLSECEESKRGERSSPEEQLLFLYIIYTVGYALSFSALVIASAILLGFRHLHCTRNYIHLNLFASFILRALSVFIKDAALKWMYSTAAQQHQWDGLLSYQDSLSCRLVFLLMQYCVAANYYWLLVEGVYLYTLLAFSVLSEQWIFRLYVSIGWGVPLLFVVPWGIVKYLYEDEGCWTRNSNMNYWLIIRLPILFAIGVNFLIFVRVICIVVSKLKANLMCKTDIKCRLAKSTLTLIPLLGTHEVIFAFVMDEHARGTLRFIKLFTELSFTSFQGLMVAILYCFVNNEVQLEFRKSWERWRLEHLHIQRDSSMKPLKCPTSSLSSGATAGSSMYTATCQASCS
Experiment: qHTS of GLP-1 Receptor Inverse Agonists (Inhibition Mode); further: nearly all actives have a fitted effect of over 55% in size
Conditions: HEK293 GLP-1R CRE-luciferase, luminescence, 24 h, GLP-1R form is constitutively active; activity change, negative = inhibition: at 38.3 µM (top of the series) unless noted
In short: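 Inverse agonists were sought by their lowering of basal cAMP reporter luciferase output in HEK293 cells stably carrying constitutively active human GLP-1R, after 24 h compound treatment.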
On the % scale 0 is the no-effect control and ±100 the full control effect; potency means the concentration at half of the fitted maximal effect; tags describe the fitted curve by direction and shape.

| SMILES | Potency | activity change, negative = inhibition |
| --- | --- | --- |
| CCN(CC)C(=O)N1c2ccccc2Sc2ccccc21 | inconclusive [inhibitor, partial curve, poor fit] |  |
| O=C(N/N=C/c1ccccc1)c1cccc2ccccc12 | inconclusive [inhibitor, single point] |  |
| CC(C)c1ccc(NC(=O)Cn2nnc(C(=O)NCc3ccc(Cl)cc3)c2N)cc1 |  | inactive: 7.15% |
| CCCN1Cc2cccc(C(=O)N3CCN(c4cc(Cl)ccc4C)CC3)c2C1=O |  | inactive: -4.32% |
| C/C(=N\NC(=O)c1ccc(C)cc1)C1C(=O)c2ccccc2C1=O | inconclusive [inhibitor, partial curve, poor fit] |  |
| CSc1ccc(CCNC(=O)c2cc3cc(S(=O)(=O)N4CCCCC4)ccc3n2C)cc1 | inconclusive [inhibitor, partial curve, poor fit] |  |
| O=C1/C(=C\c2cc(Cl)c(O)c(Cl)c2)SC(=S)N1Cc1ccccc1 | inconclusive [inhibitor, full curve, poor fit] |  |
| Cc1ccccc1N1CCN(S(=O)(=O)c2ccc3ccccc3c2)CC1 | active: 10 µM |  |
| CCC(NC(=S)NCc1ccc(F)cc1)c1ccc(C)cc1 (centres undefined) | inconclusive [inhibitor, partial curve, poor fit] |  |
| O=C1/C(=C/c2ccccc2)CCCc2ccccc21 | inconclusive [inhibitor, partial curve, poor fit] |  |
| O=C(COc1ccc2ccccc2c1)NCCn1ccc2ccccc21 | inconclusive [inhibitor, partial curve, poor fit] |  |
| CCN(CC)S(=O)(=O)c1cc(NC(=O)c2cc(-c3ccccn3)nc3ccccc23)ccc1C | inconclusive [inhibitor, single point] |  |
| Cc1cc(F)ccc1NC(=O)CS(=O)(=O)c1cccc2nsnc12 |  | inactive: -1.49% |
| Fc1ccc2nc(Nc3nc4cc5c(cc4s3)OCCO5)sc2c1 | inconclusive [inhibitor, single point] |  |
| CCOC(=O)c1ccc(NC(=O)Cn2ncc(Cl)c(Cl)c2=O)cc1 | inconclusive [inhibitor, single point] |  |
| Cc1ccc(SC2=C(N(C)C)C(=O)c3ccccc3C2=O)cc1 | inconclusive [inhibitor, partial curve, poor fit] |  |
| CCN(c1ccccc1)S(=O)(=O)c1ccc(C(=O)OC(C)C(=O)NCCC2=CCCCC2)cc1 (centres undefined) | inconclusive [inhibitor, single point] |  |
| COc1cc2ccccc2cc1C(=O)Nc1ccc(CN2CCOCC2)cc1 | inconclusive [inhibitor, single point] |  |
| CC1(C)CC(=O)C2=C(C1)Nc1ccccc1NC2c1ccc(F)cc1 (centres undefined) | inconclusive [inhibitor, single point] |  |
| O=C(CSc1nnc(-c2ccccc2)c(-c2ccccc2)n1)Nc1ccc(Br)cn1 | inconclusive [inhibitor, partial curve, poor fit] |  |
| Cc1cccc(CC(=O)NCc2nc3cccnc3n2Cc2ccc(F)cc2)c1 |  | inactive: -8.65% |
| CCNC(=S)NNC(=O)c1cc(-c2ccc(OC)cc2)nc2ccccc12 |  | inactive: -19.3% |

| SMILES | Potency | activity change, negative = inhibition |
| --- | --- | --- |
| Cc1ccc(NC(=O)CCc2ccccc2)cc1C | inconclusive [inhibitor, single point] |  |
| Cc1ccc(-n2cc(C(=O)c3cc(Cl)ccc3O)cc(C#N)c2=O)cc1 | inconclusive [inhibitor, partial curve, poor fit] |  |
| CCOc1cccc(C(=O)Nc2cc(C)ccc2NC(=O)c2ccco2)c1 | inconclusive [inhibitor, partial curve, poor fit] |  |
| OCCOCCn1c(CCNc2nc(-c3ccc(Cl)cc3)cs2)nc2cc(Cl)c(Cl)cc21 | inconclusive [inhibitor, single point] |  |
| CCOC(=O)c1ccc(NC(=S)N(CCN2CCCCCC2)Cc2ccco2)cc1 | active: 6.31 µM |  |
| COc1ccc(NC(=O)c2cc(C3CCCCN3S(=O)(=O)c3ccc(F)cc3F)on2)c(C)c1 (centres undefined) | inconclusive [inhibitor, single point] |  |
| COc1ccccc1OCCN1CSC(=S)N(C)C1 | inconclusive [inhibitor, single point] |  |
| Cc1ccc(Cc2c(C3CCCCC3)nc3c(C)cc(Br)cn23)cc1 | inconclusive [inhibitor, partial curve, poor fit] |  |
| O=C(CSc1nc(=O)[nH]c2c1CCCC2)NCc1ccc(F)cc1 |  | inactive: 11.5% |
| Cc1cc(C(=O)CSc2nnc(-c3ccc(F)cc3)o2)c(C)n1CC1COc2ccccc2O1 (centres undefined) | inconclusive [inhibitor, partial curve, poor fit] |  |
| CSc1nc(N)nc(SCCS(=O)(=O)c2ccc(Cl)cc2)c1C#N | inconclusive [inhibitor, single point] |  |
| COc1ccc(C(=O)/C=C/c2cn(CC(O)CN3CCOCC3)c3ccccc23)cc1 (centres undefined) | inconclusive [inhibitor, single point] |  |
| CN(C)CCN(Cc1ccco1)C(=O)c1oc2ccccc2c1NC(=O)c1cccc(F)c1 | inconclusive [inhibitor, single point] |  |
| CCCCCCCNC(=O)c1cc(-c2ccncc2)nc2ccccc12 | inconclusive [inhibitor, single point] |  |
| CCC1(c2ccccc2)NC(=O)N(CC(=O)NCc2ccc(C)cc2)C1=O (centres undefined) |  | inconclusive: -32.6% [inhibitor] |
| N#Cc1c(N2CCCCC2)nc(N2CCCCC2)c2c1CCN(Cc1ccccc1)C2 |  | inactive: 0% |
| COc1ccc(CNCc2c(C(=O)O)n(Cc3ccc(F)cc3)c3cc(C)ccc23)cc1OC |  | inactive: 12.3% |
| COc1ccc(-c2csc(C(O)c3ccc(F)cc3)n2)cc1 (centres undefined) | inconclusive [inhibitor, single point] |  |
| O=C(NCc1ccccc1)C(c1ccc(-c2ccccc2)cc1)N1CCN(C(=O)C2CCCO2)CC1 (centres undefined) | inconclusive [inhibitor, full curve, poor fit] |  |
| COc1ccc(Br)cc1S(=O)(=O)NCc1ccccc1 | inconclusive [inhibitor, partial curve, poor fit] |  |
| Cc1ccc(C(=O)Nc2ccsc2C(=O)O)cc1 | inconclusive [inhibitor, single point] |  |
| CN(C)CCCNc1cc(C(C)(C)C)nc2c(-c3ccccc3)cnn12 | inconclusive [inhibitor, partial curve, poor fit] |  |

| SMILES | Potency | activity change, negative = inhibition |
| --- | --- | --- |
| Cc1cc(C)cc(NC(=O)N2CCN(c3cc(-c4noc(C)n4)ccc3C)CC2)c1 | inconclusive [inhibitor, single point] |  |
| Cc1cccc(C)c1NC(=O)c1ccc(CN2CCc3ccccc3C2)cc1 | inconclusive [inhibitor, partial curve, poor fit] |  |
| Cc1cccc(NC(=S)N2CCN(Cc3ccc4c(c3)OCO4)CC2)c1C | inconclusive [inhibitor, partial curve, poor fit] |  |
| Cc1ccc(CNC(=O)c2cc3c(s2)-c2c(C)cccc2OC3)cc1 |  | inactive: -8.75% |
| CCOC(=O)c1c(NC(C)=O)c2c3c(sc2n1Cc1nc(-c2ccccc2Cl)oc1C)CCCC3 |  | inactive: 11.4% |
| CC(C(=O)N1CCCc2ccccc21)N1CCN(S(=O)(=O)c2ccccc2F)CC1 (centres undefined) | inconclusive [inhibitor, single point] |  |
| Cc1ccc(/C=N/NC(=O)c2cc(C)oc2C)cc1 | inconclusive [inhibitor, single point] |  |
| CCOC(=O)c1ccc(N=c2sc(C(=O)OC)cc(=O)n2-c2ccc(C(=O)OCC)cc2)cc1 | inconclusive [inhibitor, full curve] |  |
| COc1ccc(Cn2c(=O)c3ccccc3n3c(-c4cccc(OC)c4OC)nnc23)cc1 | inconclusive [inhibitor, partial curve, poor fit] |  |
| CCCC(=O)Nc1ccccc1NC(=O)CN(C)S(=O)(=O)c1ccc(C)cc1 |  | inactive: -11.5% |
| COc1ccccc1C1C(C(=O)c2ccc(C)o2)=C(O)C(=O)N1c1cc(C)on1 (centres undefined) |  | inactive: 1.32% |
| O=C(NC(=S)Nc1cccc2cnccc12)c1ccccc1 | inconclusive [inhibitor, single point] |  |
| CS(=O)(=O)N(Cc1ccc(Cl)cc1)c1ccc(C(=O)N2CCN(c3ccccc3)CC2)cc1 | inconclusive [inhibitor, single point] |  |
| O=C(NNC(=O)C1CCN(S(=O)(=O)c2ccccc2)CC1)c1ccccc1O | inconclusive [inhibitor, single point] |  |
| COc1ccc(CC(=O)Nc2ccc3nc(N4CCCCC4)cc(C)c3c2)cc1 | inconclusive [inhibitor, single point] |  |
| Cc1nc2ccc([N+](=O)[O-])cc2c(=O)n1Cc1ccccc1Br | inconclusive [inhibitor, single point] |  |
| CCOc1ccccc1C1N=C(c2ccc(OC)cc2)CC(c2ccccc2O)N1 (centres undefined) |  | inactive: 11.2% [at 0.307 µM] |
| Fc1ccc(OCCCCCN2CCCC2)cc1 |  | inactive: -17.1% |
| O=C(Cn1nnc(-c2ccc(CN3CCOCC3)cc2)n1)Nc1nc(-c2ccccc2)cs1 |  | inactive: -7.5% |
| Cc1ccc(S(=O)(=O)N2[C@@H](c3cccc(Cl)c3)C(C(=O)O)=CC[C@H]2c2cccs2)cc1 | inconclusive [inhibitor, partial curve, poor fit] |  |
